Laboratory results published in the supplement of paper PMC12217912.
Some of the results follow. The full chains were built here from the parent and the listed change. Inactive controls read about 0.05.

B1: TEV protease; numbered along this chain (parent)
chain: MGESLFKGPRDYNPISSSICHLTNESDGHTTSLYGIGFGPFIITNKHLFRRNNGTLVVQSLHGVFKVKDTTTLQQHLVDGRDMIIIRMPKDFPPFPQKLKFREPQREERICLVTTNFQTKSMSSMVSDTSCTFPSGDGIFWKHWIQTKDGQCGSPLVSTRDGFIVGIHSASNFTNTNNYFTSVPKNFMELLTNQEAQQWVSGWRLNADSVLWGGHKVFMVKPEEPFQPVKEATQL

Variants of: B1
Experiment: raw area under fraction-flipped curve 0-4 h after induction (AUC4h, not background-subtracted), DNA-recorder readout of cleavage of the substrate (dimensionless); higher = more cleavage of the substrate by the protease variant
Conditions: temperature: 34 °C; time window: 0-4 h after rhamnose induction
Experimental: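 In vivo DNA recorder in E. coli TOP10(DE3) ΔrhaA at 34 °C. Each TEVp single-site mutant (parent TEVp 0) is paired with a single-site variant of the 7-mer TEVs (canonical ENLYFQ|S). The substrate sits between flexible linkers in a Bxb1-sfGFP-TEVs-SsrA fusion, so cleavage stabilises Bxb1 and speeds flipping of a recombination array, read by NGS. The value is the raw area under the fraction-flipped curve over 0-4 h after rhamnose induction (AUC4h), with ≥20 reads per time point. It is not background-subtracted; inactive controls average about 0.047.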
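Note: Bxb1 expression induced with 0.2% (w/v) L-rhamnose at OD600 near 0.5, cultures sampled hourly, flipped fraction per protease–substrate barcode pair counted by paired-end Illumina sequencing.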

Variant	area with substrate ENLYFQC	area with substrate ENLYFQH	area with substrate ENLYFQI	area with substrate ENLYFQL	area with substrate ENLYFQP	area with substrate ENLYFQR	area with substrate ENLYFQS	area with substrate ENLYFQT	area with substrate ENLYFQV	area with substrate ENLYFQW	area with substrate ENLYFQD	area with substrate ENLYFQE	area with substrate ENLYFQF	area with substrate ENLYFQK	area with substrate ENLYFQM	area with substrate ENLYFQN	area with substrate ENLYFQQ	area with substrate ENLYFQY	area with substrate ENLYFQG
W212T	0.0714	0.094	0.0677	0.0585	0.029	0.0626	0.089	0.0769	0.0517	0.0424	–	–	–	–	–	–	–	–	–
T55W	0.118	0.0404	–	0.0711	0.06	0.0581	0.0992	0.0535	–	0.0612	0.0818	0.0595	0.05	0.0647	0.0909	0.0721	0.0775	0.0636	–
P93G	0.118	–	–	0.0642	0.0277	0.0611	0.103	0.0825	0.0836	0.0538	–	–	–	0.0686	–	–	–	0.0726	0.0898
G63E	0.0916	–	–	0.0619	–	0.0497	0.0857	0.0717	0.0675	–	–	–	–	0.0451	–	–	0.0888	–	–
F49N	0.073	–	0.0457	0.0509	0.0825	0.0534	0.0633	0.0634	0.0537	0.0509	–	–	0.0364	0.048	0.0411	0.0509	–	0.0508	0.0742
R102S	0.0652	–	–	0.0498	0.0543	0.0432	0.0573	–	0.0669	0.0547	0.0298	0.0503	0.0569	–	0.0552	0.0589	–	–	0.0597
N206D	0.126	–	0.0667	0.0631	–	0.0617	0.121	0.0571	0.06	0.0852	0.0868	0.0619	–	0.0769	0.128	0.0846	–	0.108	–
R51E	0.116	0.0835	0.0707	0.0641	0.051	0.0523	0.107	–	–	–	–	0.0579	–	0.0653	–	0.0784	–	0.0804	0.0881
S158C	0.108	0.0667	0.0563	0.0585	–	–	0.0946	–	–	0.0614	–	–	0.0819	0.0511	0.0848	0.0757	–	–	–
F218Q	0.0966	0.0756	–	0.0666	0.0597	0.0604	0.0929	0.062	0.0725	–	0.0505	–	–	0.0642	0.0629	0.0657	0.0642	0.046	0.089
V210I	0.0898	0.0647	–	0.0616	–	–	0.105	–	–	–	–	–	–	0.0653	0.0878	–	–	–	0.114
V229W	0.112	–	0.0705	0.0583	–	–	0.0951	0.0479	0.0577	–	0.067	–	0.0623	0.0538	0.0897	0.0998	–	0.0831	0.0923
A207F	0.0911	0.0816	0.0552	0.0542	–	–	0.0865	0.0697	0.0583	–	–	–	–	0.0637	0.0704	0.0708	0.0668	–	–
T55P	0.0915	0.066	–	0.0645	0.054	–	0.0853	0.0637	–	–	0.0783	–	0.0704	–	0.0779	0.0464	–	–	0.0947
Q197H	0.116	–	–	0.0487	–	0.0597	0.0941	–	–	–	0.0674	–	0.0672	0.0869	0.0769	0.0734	–	–	–
L190I	0.122	–	–	–	0.0654	0.0442	0.112	0.0673	0.0574	–	–	–	0.09	–	0.0745	–	–	–	–

Variant	area with substrate ENLYFQC	area with substrate ENLYFQH	area with substrate ENLYFQI	area with substrate ENLYFQL	area with substrate ENLYFQP	area with substrate ENLYFQR	area with substrate ENLYFQS	area with substrate ENLYFQT	area with substrate ENLYFQV	area with substrate ENLYFQW	area with substrate ENLYFQD	area with substrate ENLYFQE	area with substrate ENLYFQF	area with substrate ENLYFQK	area with substrate ENLYFQM	area with substrate ENLYFQN	area with substrate ENLYFQQ	area with substrate ENLYFQY	area with substrate ENLYFQG
V57H	0.103	–	–	0.0747	–	0.0652	0.0942	–	0.0551	0.108	0.0777	–	–	–	–	–	–	–	0.131
K7F	0.142	0.0772	0.0606	0.0719	–	–	0.111	–	–	0.0579	–	–	–	0.0722	–	–	–	–	–
H215Y	0.0964	–	–	0.0467	–	–	0.0775	0.0552	–	0.0593	–	–	0.0298	0.0617	0.0622	–	0.0533	–	0.0665
V157H	0.0505	–	0.0533	0.0456	0.062	0.0513	0.0554	0.0469	0.0383	0.0417	0.0666	0.0576	0.0381	0.0435	0.0754	0.0407	–	0.0544	–
P134F	0.0606	–	–	–	–	0.054	0.0679	0.0691	0.062	–	0.0612	–	–	0.0573	0.0641	0.0319	–	0.0647	0.073
T233F	0.135	0.0737	0.0764	0.0607	–	0.0519	0.0925	0.058	0.0655	0.0825	0.0639	–	0.0915	0.0768	–	0.071	0.0748	–	–
R102V	0.0513	0.0433	–	–	–	0.0495	0.0544	0.0495	–	–	–	–	0.0452	0.0432	0.0641	0.0544	0.0452	0.0393	0.0428
S135E	0.0687	–	0.0561	0.0507	–	0.0701	0.0788	0.0721	–	–	0.068	–	–	0.0612	–	0.0643	–	–	0.0783
T55R	0.138	–	0.058	0.0677	–	0.0623	0.096	0.049	0.0697	0.0873	–	–	–	0.047	–	–	–	0.073	0.113
T72M	0.103	0.0835	0.0602	0.0598	–	–	0.0956	0.066	–	–	–	–	–	–	0.0876	0.0772	0.0704	0.0777	–
T115H	0.101	–	0.0663	–	0.06	–	0.101	–	0.0458	0.0675	0.0532	–	–	–	0.0849	–	–	–	–
S130F	0.0985	–	0.0612	–	–	0.062	0.0844	–	–	–	–	–	0.0484	–	0.0853	0.0912	0.0863	–	0.0557
N206V	0.0639	–	0.0619	0.0526	0.0664	0.0603	0.0842	–	0.0636	0.0239	0.0851	–	–	0.0569	0.0634	0.0714	–	–	–
H62P	0.105	0.0682	–	–	0.0535	0.0596	0.0799	0.0591	0.0677	–	–	–	–	–	–	0.0624	–	–	0.0857
Y34P	0.0748	0.0677	0.0418	–	0.0522	0.0515	0.0502	0.0256	–	–	–	–	–	0.0439	0.0481	–	–	–	0.0601
